The supplement of paper PMC10126150
Sequences with one replicate were seen in a single cluster, so their values are uncertain.

These sequences were tested on ATP (assay: switch fluorescence ratio, 500 uM ATP over buffer (Cy3 cluster intensity, sum of 5 cycles each) (fold (ratio)); higher = stronger signal-on switching upon ATP binding; sequences stand for … in TCGTCGGCAGCGTCAGATGTGTATAAGAGACAGTTTTTTTTTTTTTTTTTTTTTTTTT…TC). Details: aptamer strand: ATP DNA aptamer (quencher-CACCTGGGGGAGTATTGCGGAGGAAGG + anchor), 100 nM annealed; ATP concentration: 500 uM; one replicate.
Procedure, shortened: (§1)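 The quencher-labelled ATP aptamer, at 100 nM, was annealed to Cy3-labelled switching-strand clusters on a modified Illumina MiSeq flow-cell. The clusters were imaged in selection buffer, then after 15 min with 500 uM ATP at 22 °C, and this buffer/ATP cycle ran five times with NaOH stripping and re-annealing between runs. Per-cluster fluorescence ratios, summed target-cycle over summed buffer-cycle Cy3 intensity, were averaged per switch-domain sequence. Clusters outside 100-1000 RFU were excluded.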
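Further: ATP exposure 15 min at 22 °C before imaging.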

Row | Sequence | switch fluorescence ratio
1 | TTTGGGCAGA | 1.03
2 | TTTGGGTCGC | 0.991
3 | TTTGGTATC | 1
4 | TTTGGTATCA | 0.969
5 | TTTGGTCCGA | 1.01
6 | TTTGGTCTGG | 0.989
7 | TTTGGTTACG | 0.998
8 | TTTGTCATCT | 1.03
9 | TTTGTCCTAT | 1.03
10 | TTTGTGGGCT | 1.12
11 | TTTGTTAGGA | 0.983
12 | TTTGTTATTC | 0.997
13 | TTTGTTCAA | 1.01
14 | TTTGTTCGAG | 0.969
15 | TTTGTTGTGA | 0.982
16 | TTTGTTTT | 0.951
17 | TTTTAACAAA | 0.987
18 | TTTTAATAAG | 1
19 | TTTTAATGTA | 0.981
20 | TTTTACACAG | 0.963
21 | TTTTACCTGG | 1.01
22 | TTTTAGAACA | 0.986
23 | TTTTAGATGT | 0.974
24 | TTTTAGCTC | 1.06

Row | Sequence | switch fluorescence ratio
25 | TTTTAGCTGT | 1.06
26 | TTTTAGGCGG | 1.01
27 | TTTTAGTCCC | 0.984
28 | TTTTATAGAG | 0.999
29 | TTTTATCCAC | 1.06
30 | TTTTATTAGC | 0.981
31 | TTTTCAAGAT | 1.08
32 | TTTTCACCCA | 1.05
33 | TTTTCACTGC | 1.04
34 | TTTTCATG | 0.975
35 | TTTTCCCGCT | 1.11
36 | TTTTCGAACT | 1.02
37 | TTTTCGAAGT | 1
38 | TTTTCGACTG | 0.948
39 | TTTTCGCGGT | 1
40 | TTTTCTAGTG | 1.05
41 | TTTTCTGGAC | 1
42 | TTTTCTGTAC | 1.07
43 | TTTTGAATGA | 1
44 | TTTTGAATGT | 0.969
45 | TTTTGACAGC | 1.04
46 | TTTTGAGCTA | 0.953
47 | TTTTGCACTG | 1.07
48 | TTTTGCGA | 1.02

Row | Sequence | switch fluorescence ratio
49 | TTTTGGACGA | 1.02
50 | TTTTGGCCGC | 1.05
51 | TTTTGGTACG | 0.976
52 | TTTTGGTCCC | 1.04
53 | TTTTGTCAAC | 1.01
54 | TTTTGTCACA | 1.07
55 | TTTTGTCAGA | 0.96
56 | TTTTGTCTAA | 1
57 | TTTTGTCTCA | 0.996
58 | TTTTGTT | 0.986
59 | TTTTGTTGCC | 1.09
60 | TTTTTACACC | 1.11
61 | TTTTTATAGA | 1.01
62 | TTTTTCCCGT | 1.04
63 | TTTTTCGTCC | 1.03
64 | TTTTTCGTCG | 0.934
65 | TTTTTCTGTA | 0.965
66 | TTTTTGAG | 1.05
67 | TTTTTGATTC | 1.02
68 | TTTTTGCA | 1
69 | TTTTTGCGA | 1.01
70 | TTTTTTAT | 1.03

The sequences below were run on ATP (assay: switch fluorescence ratio, 500 uM ATP over buffer (Cy3 cluster intensity, sum of 5 cycles each) (fold (ratio)); higher = stronger signal-on switching upon ATP binding). Details: aptamer strand: ATP DNA aptamer (quencher-CACCTGGGGGAGTATTGCGGAGGAAGG + anchor), 100 nM annealed; ATP concentration: 500 uM; one replicate.
Procedure, shortened: as §1

Row | Sequence | switch fluorescence ratio
71 | TCGTCGGCAGCGTCAGATGTGTATAAGAGACAGTTTTTTTTTTTTTTTTTTTTTTTTTAATC | 0.996
